Hit rate of the full screen: of about 340,000 compounds, about 6,900 (2%) were called active. Rule as the data show it: active = inhibition above about 30%; inactive = below that, where a call was filed. The list shows a part of the results, in another mix than the full data. Where no call is shown, the source filed none.
target: D(2) dopamine receptor (Homo sapiens) (UniProt P14416); assay: HTS Assay for Allosteric Antagonists of the Human D2 Dopamine Receptor: Primary Screen for Antagonists; conditions: HEK293 TREx D2 cells, calcium flux, dopamine EC80; at 10 µM; stronger effect = higher value; also: 0% is about no effect
How it was run: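 Tetracycline-induced HEK293 TREx cells expressing D2 receptor forced-coupled to calcium signalling, loaded with no-wash calcium dye. Compounds added and calcium flux read 180 s, then dopamine added at EC80 and read a further 180 s.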

Sequence of UniProt P14416 (P14416 whole entry, looked up): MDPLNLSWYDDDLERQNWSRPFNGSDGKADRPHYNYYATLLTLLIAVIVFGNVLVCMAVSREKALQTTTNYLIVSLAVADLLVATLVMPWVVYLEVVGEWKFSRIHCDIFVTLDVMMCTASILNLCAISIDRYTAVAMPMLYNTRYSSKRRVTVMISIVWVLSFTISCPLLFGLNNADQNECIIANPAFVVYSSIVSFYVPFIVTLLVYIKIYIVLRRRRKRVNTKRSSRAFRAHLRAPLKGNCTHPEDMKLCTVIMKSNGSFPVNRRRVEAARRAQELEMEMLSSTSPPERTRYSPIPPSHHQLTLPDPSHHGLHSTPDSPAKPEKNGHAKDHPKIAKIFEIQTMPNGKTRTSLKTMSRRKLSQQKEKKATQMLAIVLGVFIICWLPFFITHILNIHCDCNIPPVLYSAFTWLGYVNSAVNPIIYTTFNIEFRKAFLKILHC

First: CCOc1ccc(-c2cc(-c3nc(-c4cc(OC)c(OC)c(OC)c4)no3)[nH]n2)cc1Cl
Second: COc1cc(N2C(=O)CSC23C(=O)N(Cc2ccc(C)cc2)c2ccccc23)cc(OC)c1OC (centres undefined)
The inhibition of the first is higher: 6.17% for the first, -2.79% for the second.

Compared with `Cc1cccc(NC(=O)c2c(C)cc(C)nc2SCC(=O)Nc2c(C)cc(C)cc2C)c1`, `Cc1cc(C)c(NC(=O)Cn2c(=O)n(CC(=O)NCCc3ccccc3)c(=O)c3ccccc32)c(C)c1` is higher in inhibition: -21.9% for the first, 10.4% for the second.

Compared with `CC(=O)Nc1ccc(NC(=O)c2ccc(COc3ccc(Cl)cc3Cl)o2)cc1`, `COc1ccc(CNC(=O)c2ccc(CS(=O)(=O)c3ccc(Br)cc3)o2)cc1` is higher in inhibition: 5.69% for the first, 22.7% for the second.

Going from `Cc1ccc(-n2nc(CO)c(C(=O)NCc3cccs3)n2)cc1C` to `Cc1ccc(CNC(=O)CSCc2nc(-c3cccc(C)c3)oc2C)cc1`, the inhibition falls from -5.68% to -15.5%.

First: COC(=O)c1cc(NC(=O)[C@H](CCS(C)(=O)=O)N2Cc3ccccc3C2=O)cc(C(=O)OC)c1
Second: COc1ccc(S(=O)(=O)N(CCc2ccccc2)CC(=O)Nc2cc(C)cc(C)c2)cc1OC
The inhibition of the first is lower: -8.51% for the first, 3.88% for the second.

First: CCc1ccc(-c2nc3cc(NC(=O)c4cc5ccccc5cc4OC)ccc3o2)cc1
Second: CCOc1ccc(OCC)c(NC(=O)c2cc(-c3cccs3)nc3ccccc23)c1
The inhibition of the first is higher: -13.2% for the first, -14.4% for the second.

Compared with `CCc1cc(C(=O)NC(C)c2ccccc2)no1` (centres undefined), `COc1ccccc1CNC(=O)CSc1cc(C)[nH]c(=O)n1` is higher in inhibition: -11.8% for the first, -2.26% for the second.

Going from `COc1ccc(Br)c(C(=O)Nc2cc3c(cc2N2CCCCC2)n(C)c(=O)c(=O)n3C)c1` to `O=C(Nc1nnc(S(=O)(=O)N2CCCC2)s1)c1ccccc1Br`, the inhibition rises from -11.2% to -3.92%.

First: COc1cc2c(cc1OC)C(COc1ccc(F)cc1)N(C(=O)c1ccc(S(=O)(=O)N3CCCC3)cc1)CC2 (centres undefined)
Second: COc1cc2c(cc1OC)C(COc1ccc(C(C)C)cc1)N(C(=O)c1ccc(S(=O)(=O)N3CCCC3)cc1)CC2 (centres undefined)
The inhibition of the first is higher: 24.9% for the first, 5.42% for the second.

Compared with `COc1cc(C2CC(=O)N(Cc3ccc(F)cc3)c3ccccc3S2)cc(OC)c1OC` (centres undefined), `Cc1ccc(CCNC(=O)c2ccc3c(c2)N(Cc2ccc(F)cc2)CCS3)cc1` is lower in inhibition: -9.88% for the first, -12.2% for the second.

Compared with `CCC(C)n1c(SCc2c(F)cccc2Cl)nc2ccsc2c1=O` (centres undefined), `O=c1c2sccc2n(Cc2cc(=O)n3cc(Cl)ccc3n2)c(=O)n1-c1ccccc1` is higher in inhibition: -11.2% for the first, -4.98% for the second.

Compared with `COc1ccc(N2CCN(S(=O)(=O)c3ccc4c(c3)CCCN4C(C)=O)CC2)cc1`, `O=C(NCCS(=O)(=O)N1CCN(c2ccccc2F)CC1)C1CC(=O)N(c2ccc(F)cc2)C1` (centres undefined) is higher in inhibition: -20.1% for the first, 4.69% for the second.

Compared with `CC1CCN(CCCNC(=O)c2cn(C)c3ccc(S(=O)(=O)N(C)C4CCCCC4)cc3c2=O)CC1`, `CCC(C)NC(=O)c1cn(CC)c2ccc(S(=O)(=O)N3CCc4ccccc4C3)cc2c1=O` (centres undefined) is lower in inhibition: 13.4% for the first, 11.8% for the second.

Compared with `Cc1ccc(C)c(CN2C(=O)c3ccccc3S(=O)c3ccc(C(=O)N4CCN(c5ccccc5F)CC4)cc32)c1` (centres undefined), `COc1ccccc1N1CCN(S(=O)(=O)CCNC(=O)C(c2ccccc2)c2ccccc2)CC1` is lower in inhibition: 10.8% for the first, 2.45% for the second.

First: Cn1c(=O)oc2cc(S(=O)(=O)N3CCC(C(=O)NCc4ccc(F)cc4)CC3)ccc21
Second: Cc1nc(-c2ccc(C)c(S(=O)(=O)N3CCC(C(=O)NCc4ccc(F)cc4)CC3)c2)no1
The inhibition of the first is lower: 15% for the first, 25.2% for the second.

Going from `COc1ccc(Nc2nc3cc(Cl)c(Cl)cc3n3cnnc23)cc1Cl` to `CCCCOC(=O)c1ccc(Nc2nc3ccc(C(=O)c4ccccc4)cc3n3cnnc23)cc1`, the inhibition rises from -13.1% to 10.5%.

Going from `Cc1ccccc1OCCCn1c(-c2ccc(Cl)cc2)nc2ccccc2c1=O` to `CCc1cccc(C)c1NC(=O)Cn1ncc2c3ccccc3n(Cc3ccccc3)c2c1=O`, the inhibition rises from 15.5% to 18%.

Compared with `Cc1ccccc1Cn1nnc2c(=O)[nH]c(C3CCCN(C(=O)c4ccc(F)cc4)C3)nc21` (centres undefined), `O=C(CSc1nc2ccccc2n1Cc1cccc(F)c1)N1CCN(c2ccc(F)cc2)CC1` is higher in inhibition: 4.1% for the first, 9.3% for the second.

First: CCOC(=O)c1ccc(NC(=O)CSc2nnc(CNC(=O)c3ccc(OC)cc3)n2CC)cc1
Second: COc1ccc(-c2cn3nc(SCC(=O)Nc4cc(C)cc(C)c4)ccc3n2)cc1
The inhibition of the first is higher: -9.88% for the first, -13.7% for the second.

Going from `COc1ccc(NC(=O)CC2C(=O)N(c3ccc(C)cc3)C(=O)N2Cc2ccc3c(c2)OCO3)cc1` (centres undefined) to `COc1ccc(OC)c(NC(=O)CS(=O)(=O)Cc2nc(-c3ccc(C)cc3)oc2C)c1`, the inhibition rises from -14.1% to 2.54%.

First: O=S(=O)(c1ccc2nc(Nc3ccc(F)cc3)ccc2c1)N1CCCC1
Second: O=C(CN1C(=O)CSc2ccc(S(=O)(=O)N3CCCC3)cc21)NCc1ccc(F)cc1Cl
The inhibition of the first is higher: 3.35% for the first, -19.6% for the second.

First: Cc1cc(N2CCC(C)CC2)nc2ccc(NC(=O)CCC(=O)N3CCN(c4ccccc4F)CC3)cc12
Second: Cc1sc2ncn(CC(=O)N3CCN(c4ccccc4)CC3)c(=O)c2c1S(=O)(=O)N1CCC(C)CC1
The inhibition of the first is higher: 0.007% for the first, -13% for the second.

First: Cc1ccc(C)c(CNC(=O)CN2C(=O)CSc3ccc(S(=O)(=O)N(C)C)cc32)c1
Second: O=C1CCSc2ccc(S(=O)(=O)Nc3cccc(C(F)(F)F)c3)cc2N1
The inhibition of the first is higher: -5.1% for the first, -5.54% for the second.

Going from `Cc1cccc(-n2nnc(-c3nc(-c4cccs4)no3)c2N)c1` to `O=C(CCc1nc(-c2cccs2)no1)Nc1ccc([N+](=O)[O-])cc1`, the inhibition rises from -17.9% to -9.49%.

First: CC(=O)c1cccc(N2C(=O)CN(S(C)(=O)=O)CC2(C)C(=O)NC2CCCC2)c1 (centres undefined)
Second: O=C(Cn1c(=O)n(-c2ccccc2Cl)c(=O)c2sc3ccccc3c21)NC1CCCC1
The inhibition of the first is higher: 7.8% for the first, -13.3% for the second.

Compared with `CCc1ccc(NC(=O)Cn2c(=O)n(CCc3ccccc3)c(=O)c3sc4ccccc4c32)cc1`, `Cc1cccc(Cn2c(=O)n(Cc3ccccc3)c(=O)c3sc4ccccc4c32)c1` is higher in inhibition: -11.4% for the first, -0.751% for the second.

First: O=C(NCc1ccccc1Cl)c1ccc2c(c1)N(Cc1ccccc1)CCS2
Second: O=C(NCc1ccccc1Cl)c1ccc(-n2cnc3cccnc32)cc1
The inhibition of the first is higher: -0.582% for the first, -1.49% for the second.

Compared with `CCOC(=O)c1[nH]c(C)c(CCC(=O)Nc2cc(Cl)c(OC)cc2OC)c1C`, `Cc1ccc(OCC(=O)Nc2cccc3ccc(C)nc23)c(C)c1` is higher in inhibition: -10.8% for the first, 21.5% for the second.

First: O=c1c(N2CCN(c3cccc(Cl)c3)CC2)csc2ccc(Cl)cc12
Second: O=C(c1cc2cc3ccc(Cl)cc3nc2o1)N1CCN(c2cccc(Cl)c2)CC1
The inhibition of the first is lower: 3.82% for the first, 11.3% for the second.

Going from `Cc1ccc(Cl)cc1Nc1nn2c(=O)c3ccc(C(=O)NC4CCCCC4)cc3nc2s1` to `Cc1ccc(-n2cnc3cc(C(=O)NCCC4=CCCCC4)ccc32)cc1Cl`, the inhibition falls from 5.85% to -15.9%.

First: CCOc1ccc2c(c1)c(=O)c(S(=O)(=O)c1ccc(CC)cc1)cn2Cc1cccc(Cl)c1
Second: CCOc1ccc(OCC)c(NC(=O)C2CCCN(S(=O)(=O)c3ccc(C)cc3)C2)c1 (centres undefined)
The inhibition of the first is lower: -11.9% for the first, 0.658% for the second.

First: CCCSc1ncnc2c1c(-c1ccccc1)cn2-c1ccccc1OC
Second: CCN(CC)C(=O)C1CCCN(c2ncnc3c2c(-c2ccccc2)cn3-c2cccc(C)c2)C1 (centres undefined)
The inhibition of the first is higher: -0.841% for the first, -8.83% for the second.

Going from `O=c1c2nncn2ccn1-c1ccc(F)c(F)c1` to `CCOc1ccc(-c2nnc(SCC(=O)N(CC)c3cccc(C)c3)o2)cc1`, the inhibition rises from 11.2% to 23.4%.

First: Cc1cccc(NC(=O)N2CC=C(c3c[nH]c4ccccc34)CC2)c1C
Second: Cc1cc(C(=O)NCc2ccccc2)c2c(C)nn(-c3cccc(Cl)c3C)c2n1
The inhibition of the first is lower: -28.3% for the first, 10.9% for the second.

Compared with `COCCCNC(=O)C1CCN(c2nc3ccc(Cl)cc3[nH]2)CC1`, `Cc1cccc(NC(=O)Nc2nnc(N3CCCC3)s2)c1` is higher in inhibition: -13.7% for the first, -9.12% for the second.

Compared with `CC1=C(c2ccc(C(C)C)cc2)S(=O)(=O)NC1=NCc1ccc(Cl)cc1`, `Cc1ccc(CNC(=O)CCCc2nnc3n(CC(C)C)c(=O)c4sccc4n23)cc1` is higher in inhibition: -21.9% for the first, 13.8% for the second.

First: CCCN(CCC)C(=O)Cn1c(=O)n(-c2ccc(Cl)c(Cl)c2)c(=O)c2c(C)c(C(=O)N(C)C)sc21
Second: CCc1ccccc1N(CC)C(=O)Cn1nc(Cc2ccncc2)c2ccccc2c1=O
The inhibition of the first is lower: -3.72% for the first, 4.68% for the second.

Going from `Cc1ccn2c(Nc3ccc4c(c3)OCCO4)c(-c3ccc(N(C)C)cc3)nc2c1` to `Cc1cccc(NC(=O)COc2ccc3oc4c(c3c2)CCCC4)c1`, the inhibition falls from -3.04% to -3.55%.

Compared with `Cn1c(/C(C#N)=C/c2ccc(C(F)(F)F)cc2)nc2ccccc21`, `CCOc1ccccc1NC(=O)Cn1nc(N2CCN(c3ccccc3)CC2)ccc1=O` is higher in inhibition: -6.07% for the first, 1.23% for the second.

Going from `Cc1cn2c(=O)c(S(=O)(=O)NCc3ccc(F)cc3)c(C)nc2s1` to `O=C(CCC1N=C2c3ccccc3N=C(SCC(=O)NCCc3ccccc3)N2C1=O)NCc1ccc(F)cc1` (centres undefined), the inhibition rises from -9.19% to 18.1%.

`CCC(NC(=O)Nc1cccc(C)c1)c1c(-n2cccc2)sc2c1CCN(C)C2` (centres undefined) showed an inhibition of 5.83%.

`CC1CCCCN1C(=O)Cn1nnc(-c2cccnc2)n1` (centres undefined) was tested, and the inhibition was active: 31.9%.
For `Cc1ccc(N2C(=O)C3C4C=CC(CC4)C3C2=O)cc1Br` (centres undefined), the inhibition was active: 54.9%.
`CCCCN(C)CCNC(=O)c1ccc2c(c1)NC(=O)C(N1CCCCC1)S2` (centres undefined) was tested, and the inhibition was active: 73.3%.
With `Cc1c(Br)c([N+](=O)[O-])nn1CC(=O)NC1CCCCCC1` the inhibition was active: 41.5%.
`O=C(C[n+]1cccc(CNC(=O)c2ccc(OC(F)F)cc2)c1)Nc1cccc(C(F)(F)F)c1` was tested, and the inhibition was active: 44.8%.
For `COc1cccc(OC)c1OCCN1CCN(C(=O)c2ccco2)CC1`, the inhibition was active: 63.6%.
In the case of `CC(C)c1ccc(NC(=O)[C@H](NC(=O)[C@@H]2Cc3ccccc3CN2)c2ccccc2)cc1`, the inhibition is reported as active: 32.7%.
In the case of `Nc1nc(CN2CCN(c3ccccc3F)CC2)nc(Nc2ccc3c(c2)OCCO3)n1`, the inhibition is reported as active: 54%.
`Cc1ccc(S(=O)(=O)N2CCOCC2)cc1NC(=O)CNCC1CCCCC1` was tested, and the inhibition was active: 49.8%.
In the case of `CCC(C)(C)n1nnnc1C(c1ccccn1)N1CCCCC1` (centres undefined), the inhibition is reported as active: 51.8%.
For `CC1CCN(CCOc2cc(Cl)ccc2Cl)CC1`, the inhibition was active: 72.2%.
`Cc1ccc(C(=O)Nc2oc(-c3ccccc3)cc2C#N)cc1` was tested, and the inhibition was active: 30.5%.
With `O=C(Cc1ccc(Cl)cc1)Nc1ccc(-c2cc3ccccc3oc2=O)c(Cl)c1` the inhibition was active: 46.5%.
